Test results published in the supplement of paper PMC4967469.

What was measured:
Experiment in all cases: Viability of human cancer cell lines after 72 h of drug (GDSC screen)
JNJ-26854165 = compound: c1ccc2c(CCNc3ccc(Nc4ccncc4)cc3)c[nH]c2c1 [JNJ-26854165]; details: top dose 10 µM
Procedure: (§1)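 Human cancer cell lines in 384-well plates, medium with 10% serum, drug for 72 h over a 256-fold dose range (nine 2-fold or five 4-fold steps up to the top dose). Adherent lines were fixed and stained with the nucleic acid dye Syto60, suspension lines read with resazurin; signal relative to control wells, capped at 0 and 100%. One two-parameter sigmoid per drug and line, fitted in a mixed model over all curves with the slope shared within a line.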

NSC-207895 = compound: CN1CCN(c2ccc([N+](=O)[O-])c3no[n+]([O-])c23)CC1 [NSC-207895]; details: top dose 20 µM; top dose inferred
Procedure: as §1

Docetaxel = compound: CC(=O)O[C@@]12CO[C@@H]1C[C@H](O)[C@@]1(C)C(=O)[C@H](O)C3=C(C)[C@@H](OC(=O)[C@H](O)[C@@H](NC(=O)OC(C)(C)C)c4ccccc4)C[C@@](O)([C@@H](OC(=O)c4ccccc4)[C@H]21)C3(C)C [Docetaxel]; details: top dose 0.0125 µM
Procedure: as §1

CGP-60474 = compound: OCCCNc1cc(-c2ccnc(Nc3cccc(Cl)c3)n2)ccn1 [CGP-60474]; details: top dose 0.256 µM; top dose inferred
Procedure: as §1

JNK Inhibitor VIII = compound: CCOc1nc(NC(=O)Cc2cc(OC)ccc2OC)cc(N)c1C#N [JNK Inhibitor VIII]; details: top dose 10 µM; top dose inferred
Procedure: as §1

JQ1 = compound: Cc1sc2c(c1C)C(c1ccc(Cl)cc1)=N[C@@H](CC(=O)OC(C)(C)C)c1nnc(C)n1-2 [JQ1]
Procedure: as §1

AMG-706 = compound: CC1(C)CNc2cc(NC(=O)c3cccnc3NCc3ccncc3)ccc21 [AMG-706]; details: top dose 2 µM; top dose inferred
Procedure: as §1

YM155 = compound: COCC[n+]1c2c(n(Cc3cnccn3)c1C)C(=O)c1ccccc1C2=O [YM155]; details: top dose 5.12 µM
Procedure: as §1

OSI-906 = compound: C[C@]1(O)C[C@@H](c2nc(-c3ccc4ccc(-c5ccccc5)nc4c3)c3c(N)nccn32)C1 [OSI-906]; details: top dose 2.56 µM; top dose inferred
Procedure: as §1

Cyclopamine = compound: CC1=C2C[C@H]3[C@@H](CC=C4C[C@@H](O)CC[C@@]43C)[C@@H]2CC[C@]12O[C@@H]1C[C@H](C)CN[C@H]1[C@H]2C [Cyclopamine]; details: top dose 16 µM; top dose inferred
Procedure: as §1

SB-715992 = compound: Cc1ccc(C(=O)N(CCCN)[C@@H](c2nc3cc(Cl)ccc3c(=O)n2Cc2ccccc2)C(C)C)cc1 [SB-715992]; details: top dose 0.128 µM; top dose inferred
Procedure: as §1

FTI-277 = compound: COC(=O)[C@H](CCSC)NC(=O)c1ccc(NC[C@@H](N)CS)cc1-c1ccccc1 [FTI-277]; details: top dose 1.024 µM; top dose inferred
Procedure: as §1

Belinostat = compound: O=C(/C=C/c1cccc(S(=O)(=O)Nc2ccccc2)c1)NO [Belinostat]; details: top dose 20 µM; top dose inferred
Procedure: as §1

[1] = top dose 1 µM, screen: GDSC drug entry 1218, top dose inferred
[2] = top dose 2.56 µM, screen: GDSC drug entry 163

Row | Cell Line | AUC (JNJ-26854165) | IC50 (JNJ-26854165) | AUC (NSC-207895) | IC50 (NSC-207895) | AUC (Docetaxel) | IC50 (Docetaxel) | AUC (CGP-60474) | IC50 (CGP-60474) | AUC (JNK Inhibitor VIII) | IC50 (JNK Inhibitor VIII) | AUC (JQ1; [1]) | IC50 (JQ1; [1]) | AUC (JQ1; [2]) | IC50 (JQ1; [2]) | AUC (AMG-706) | IC50 (AMG-706) | AUC (YM155) | IC50 (YM155) | AUC (OSI-906) | IC50 (OSI-906) | AUC (Cyclopamine) | IC50 (Cyclopamine) | AUC (SB-715992) | IC50 (SB-715992) | AUC (FTI-277) | IC50 (FTI-277) | AUC (Belinostat) | IC50 (Belinostat)
1 | Becker (glioma, adherent) | 0.815 | 6.37 µM | 0.971 | > 20 µM | 0.646 | 0.00209 µM | 0.653 | 0.0449 µM | 0.984 | > 10 µM | 0.975 | > 1 µM | 0.865 | > 2.56 µM | 0.982 | > 2 µM | 0.861 | > 5.12 µM | 0.982 | > 2.56 µM | 0.962 | > 16 µM | 0.627 | 0.0187 µM | 0.983 | > 1.02 µM | – | –
2 | CA46 (Burkitt lymphoma, suspension) | 0.963 | > 10 µM | 0.824 | 13.1 µM | 0.947 | > 0.0125 µM | 0.922 | > 0.256 µM | 0.985 | > 10 µM | – | – | – | – | 0.984 | > 2 µM | 0.032 | < 0.02 µM | 0.934 | > 2.56 µM | 0.935 | > 16 µM | 0.632 | 0.0191 µM | 0.978 | > 1.02 µM | 0.075 | < 0.0781 µM
3 | DJM-1 (skin, adherent) | 0.926 | > 10 µM | 0.957 | > 20 µM | 0.618 | 0.00165 µM | 0.782 | 0.106 µM | 0.989 | > 10 µM | – | – | 0.818 | 1.43 µM | 0.988 | > 2 µM | – | – | 0.985 | > 2.56 µM | 0.932 | > 16 µM | 0.889 | > 0.128 µM | 0.984 | > 1.02 µM | 0.988 | > 20 µM
4 | DMS-114 (small cell lung carcinoma, adherent) | 0.944 | > 10 µM | 0.976 | > 20 µM | 0.793 | 0.00668 µM | 0.906 | > 0.256 µM | 0.982 | > 10 µM | – | – | – | – | 0.969 | > 2 µM | 0.041 | < 0.02 µM | 0.972 | > 2.56 µM | 0.98 | > 16 µM | 0.981 | > 0.128 µM | 0.982 | > 1.02 µM | 0.669 | 3.99 µM
5 | EB-3 (Burkitt lymphoma, suspension) | 0.978 | > 10 µM | 0.841 | 17.3 µM | 0.984 | > 0.0125 µM | 0.717 | 0.074 µM | 0.983 | > 10 µM | 0.84 | 0.857 µM | 0.863 | > 2.56 µM | 0.978 | > 2 µM | – | – | 0.983 | > 2.56 µM | 0.903 | > 16 µM | 0.894 | > 0.128 µM | 0.964 | > 1.02 µM | 0.467 | 0.998 µM
6 | KP-N-YN (neuroblastoma, adherent) | – | – | 0.77 | 8.36 µM | 0.926 | > 0.0125 µM | 0.896 | > 0.256 µM | 0.949 | > 10 µM | – | – | – | – | 0.944 | > 2 µM | 0.038 | < 0.02 µM | 0.928 | > 2.56 µM | 0.986 | > 16 µM | 0.965 | > 0.128 µM | 0.982 | > 1.02 µM | 0.397 | 0.632 µM
7 | LOUCY (T-cell lymphoblastic leukaemia, suspension) | 0.914 | > 10 µM | 0.908 | 18.8 µM | 0.877 | 0.00869 µM | 0.721 | 0.0587 µM | 0.991 | > 10 µM | – | – | – | – | 0.992 | > 2 µM | 0.324 | 0.115 µM | 0.986 | > 2.56 µM | 0.99 | > 16 µM | 0.518 | 0.00889 µM | 0.977 | > 1.02 µM | 0.092 | 0.0837 µM
8 | LP-1 (myeloma, suspension) | 0.99 | > 10 µM | 0.833 | 9.94 µM | 0.992 | > 0.0125 µM | 0.711 | 0.0558 µM | 0.975 | > 10 µM | – | – | – | – | 0.991 | > 2 µM | 0.025 | < 0.02 µM | 0.833 | 1.27 µM | 0.971 | > 16 µM | 0.713 | 0.0283 µM | 0.993 | > 1.02 µM | 0.308 | 0.405 µM
9 | ME-1 (acute myeloid leukaemia, suspension) | 0.985 | > 10 µM | 0.923 | > 20 µM | 0.981 | > 0.0125 µM | 0.935 | > 0.256 µM | 0.984 | > 10 µM | – | – | – | – | 0.982 | > 2 µM | 0.481 | 0.283 µM | 0.977 | > 2.56 µM | 0.989 | > 16 µM | 0.928 | > 0.128 µM | 0.982 | > 1.02 µM | 0.374 | 0.545 µM
10 | MHH-NB-11 (neuroblastoma, adherent) | – | – | 0.969 | > 20 µM | 0.926 | > 0.0125 µM | 0.818 | 0.163 µM | 0.975 | > 10 µM | – | – | 0.906 | > 2.56 µM | 0.983 | > 2 µM | 0.705 | 1.29 µM | 0.945 | > 2.56 µM | 0.983 | > 16 µM | 0.742 | 0.0426 µM | 0.98 | > 1.02 µM | 0.212 | 0.161 µM

The IC50 comes from the fitted curve, where viability falls to half of the control; a fit beyond the top or the lowest dose is shown as a bound at that dose. AUC is the area under the same curve over the 256-fold range up to the top dose, as a fraction: 1 means no effect, lower means more sensitive. For some assays here: The top dose, if marked as inferred, is not printed in the source and was worked back from the curve model. For some assays here: An entry number marks a drug with two screens in the source, which often give different values.
